Numbering of substitutions follows the chain as printed; changes in the protein carry UniProt numbers. Some of the results follow.
B1: UAUUUAG (DNA:RNA)
RNA: GGGAGACCGGAAUUCAGAUUGUCCUAUUUAGUUAAAUCCCGUCGUAGCCACCA
DNA 1: CAATCTGAATTCCGGTCTCCC
DNA 2: TGGTGGCTACGACGGGATT
B2: AGAGCCG (DNA:RNA)
RNA: B1 RNA with U25A, A26G, U27A, U28G, U29C, A30C
DNA 1: CAATCTGAATTCCGGTCTCCC
DNA 2: TGGTGGCTACGACGGGATT
B3: AAUGUGC (DNA:RNA)
RNA: B1 RNA with U25A, U28G, A30G, G31C
DNA 1: CAATCTGAATTCCGGTCTCCC
DNA 2: TGGTGGCTACGACGGGATT
B4: CGCUUAG (DNA:RNA)
RNA: B1 RNA with U25C, A26G, U27C
DNA 1: CAATCTGAATTCCGGTCTCCC
DNA 2: TGGTGGCTACGACGGGATT
B5: CUAGUGU (DNA:RNA)
RNA: B1 RNA with U25C, A26U, U27A, U28G, A30G, G31U
DNA 1: CAATCTGAATTCCGGTCTCCC
DNA 2: TGGTGGCTACGACGGGATT
B6: CACGGCU (DNA:RNA)
RNA: B1 RNA with U25C, U27C, U28G, U29G, A30C, G31U
DNA 1: CAATCTGAATTCCGGTCTCCC
DNA 2: TGGTGGCTACGACGGGATT
B7: AGGGUCG (DNA:RNA)
RNA: B1 RNA with U25A, A26G, U27G, U28G, A30C
DNA 1: CAATCTGAATTCCGGTCTCCC
DNA 2: TGGTGGCTACGACGGGATT
B8: UUGAUCG (DNA:RNA)
RNA: B1 RNA with A26U, U27G, U28A, A30C
DNA 1: CAATCTGAATTCCGGTCTCCC
DNA 2: TGGTGGCTACGACGGGATT
B9: GAGUCUA (DNA:RNA)
RNA: B1 RNA with U25G, U27G, U29C, A30U, G31A
DNA 1: CAATCTGAATTCCGGTCTCCC
DNA 2: TGGTGGCTACGACGGGATT
B10: CCGUACG (DNA:RNA)
RNA: B1 RNA with U25C, A26C, U27G, U29A, A30C
DNA 1: CAATCTGAATTCCGGTCTCCC
DNA 2: TGGTGGCTACGACGGGATT
B11: CCAGAGG (DNA:RNA)
RNA: B1 RNA with U25C, A26C, U27A, U28G, U29A, A30G
DNA 1: CAATCTGAATTCCGGTCTCCC
DNA 2: TGGTGGCTACGACGGGATT
B12: UCCCGAU (DNA:RNA)
RNA: B1 RNA with A26C, U27C, U28C, U29G, G31U
DNA 1: CAATCTGAATTCCGGTCTCCC
DNA 2: TGGTGGCTACGACGGGATT
B13: CUGGGAC (DNA:RNA)
RNA: B1 RNA with U25C, A26U, U27G, U28G, U29G, G31C
DNA 1: CAATCTGAATTCCGGTCTCCC
DNA 2: TGGTGGCTACGACGGGATT
B14: AUUGUAG (DNA:RNA)
RNA: B1 RNA with U25A, A26U, U28G
DNA 1: CAATCTGAATTCCGGTCTCCC
DNA 2: TGGTGGCTACGACGGGATT
B15: GUACCCU (DNA:RNA)
RNA: GGGAGACCGGAAUUCAGAUUGUCCGUACCCUUUAAAUCCCGUCGUAGCCACCA
DNA 1: CAATCTGAATTCCGGTCTCCC
DNA 2: TGGTGGCTACGACGGGATT
B16: UUCAGCU (DNA:RNA)
RNA: B15 RNA with G25U, A27C, C28A, C29G
DNA 1: CAATCTGAATTCCGGTCTCCC
DNA 2: TGGTGGCTACGACGGGATT
B17: UCUACGC (DNA:RNA)
RNA: B1 RNA with A26C, U28A, U29C, A30G, G31C
DNA 1: CAATCTGAATTCCGGTCTCCC
DNA 2: TGGTGGCTACGACGGGATT
B18: AAAGAUC (DNA:RNA)
RNA: B15 RNA with G25A, U26A, C28G, C29A, C30U, U31C
DNA 1: CAATCTGAATTCCGGTCTCCC
DNA 2: TGGTGGCTACGACGGGATT
B19: GUGCGCG (DNA:RNA)
RNA: B15 RNA with A27G, C29G, U31G
DNA 1: CAATCTGAATTCCGGTCTCCC
DNA 2: TGGTGGCTACGACGGGATT
B20: GACAAAG (DNA:RNA)
RNA: B1 RNA with U25G, U27C, U28A, U29A
DNA 1: CAATCTGAATTCCGGTCTCCC
DNA 2: TGGTGGCTACGACGGGATT
B21: CGACAUA (DNA:RNA)
RNA: B15 RNA with G25C, U26G, C29A, C30U, U31A
DNA 1: CAATCTGAATTCCGGTCTCCC
DNA 2: TGGTGGCTACGACGGGATT
B22: AAGGCCG (DNA:RNA)
RNA: B15 RNA with G25A, U26A, A27G, C28G, U31G
DNA 1: CAATCTGAATTCCGGTCTCCC
DNA 2: TGGTGGCTACGACGGGATT
B23: GGGAGUG (DNA:RNA)
RNA: B15 RNA with U26G, A27G, C28A, C29G, C30U, U31G
DNA 1: CAATCTGAATTCCGGTCTCCC
DNA 2: TGGTGGCTACGACGGGATT
B24: UCAAUCA (DNA:RNA)
RNA: B15 RNA with G25U, U26C, C28A, C29U, U31A
DNA 1: CAATCTGAATTCCGGTCTCCC
DNA 2: TGGTGGCTACGACGGGATT
B25: CUGGUGG (DNA:RNA)
RNA: B1 RNA with U25C, A26U, U27G, U28G, A30G
DNA 1: CAATCTGAATTCCGGTCTCCC
DNA 2: TGGTGGCTACGACGGGATT
B26: CCAAUCA (DNA:RNA)
RNA: B15 RNA with G25C, U26C, C28A, C29U, U31A
DNA 1: CAATCTGAATTCCGGTCTCCC
DNA 2: TGGTGGCTACGACGGGATT
B27: AGUCCCU (DNA:RNA)
RNA: B15 RNA with G25A, U26G, A27U
DNA 1: CAATCTGAATTCCGGTCTCCC
DNA 2: TGGTGGCTACGACGGGATT
B28: GGCCGUA (DNA:RNA)
RNA: B15 RNA with U26G, A27C, C29G, C30U, U31A
DNA 1: CAATCTGAATTCCGGTCTCCC
DNA 2: TGGTGGCTACGACGGGATT
B29: AGCAAGC (DNA:RNA)
RNA: GGGAGACCGGAAUUCAGAUUGUCCAGCAAGCUUAAAUCCCGUCGUAGCCACCA
DNA 1: CAATCTGAATTCCGGTCTCCC
DNA 2: TGGTGGCTACGACGGGATT
B30: UUUCGUA (DNA:RNA)
RNA: B15 RNA with G25U, A27U, C29G, C30U, U31A
DNA 1: CAATCTGAATTCCGGTCTCCC
DNA 2: TGGTGGCTACGACGGGATT
B31: AUAGCCU (DNA:RNA)
RNA: B15 RNA with G25A, C28G
DNA 1: CAATCTGAATTCCGGTCTCCC
DNA 2: TGGTGGCTACGACGGGATT

Target: T1, RBFOX1 RRM RbFoxmut (Fox-RRM*) (Homo sapiens, UniProt Q9NWB1 109-208, R118D;E147R;N151S;E152T)
T1 sequence: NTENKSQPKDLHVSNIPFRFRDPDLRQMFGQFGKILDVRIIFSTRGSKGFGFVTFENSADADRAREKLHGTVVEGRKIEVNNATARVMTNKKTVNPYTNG
Test: EMSA; HiTS-Eq, 1 nM pool, 10 min; buffer printed only for the single-RNA assays: 10 mM Tris pH 7.5, 150 mM NaCl, 3.4 mM EDTA, 0.001% NP-40, 30 C
Details: tags: His6 N-terminal (pET28a); label: 5' 32P
Method in brief: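 These values rest on relative association constants, computed from read-count changes of each RNA species versus the control reaction and normalised to the cognate motif. Reads came from free RNA recovered by 8% native PAGE after purified RbFox RRM (wild type or mutant) at increasing concentrations was equilibrated for 10 min in 50 µL with 1 nM of a 5′-radiolabelled pool with 7 randomized nucleotides and DNA-annealed flanks.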

Row | Binder | binding signal
1 | B1 | 0.122 KA relative to UGCAUGU
2 | B2 | 0.11 KA relative to UGCAUGU
3 | B3 | 0.13 KA relative to UGCAUGU
4 | B4 | 0.129 KA relative to UGCAUGU
5 | B5 | 0.168 KA relative to UGCAUGU
6 | B6 | 0.0716 KA relative to UGCAUGU
7 | B7 | 0.241 KA relative to UGCAUGU
8 | B8 | 0.24 KA relative to UGCAUGU
9 | B9 | 0.0954 KA relative to UGCAUGU
10 | B10 | 0.169 KA relative to UGCAUGU
11 | B11 | 0.0884 KA relative to UGCAUGU
12 | B12 | 0.0601 KA relative to UGCAUGU
13 | B13 | 0.0652 KA relative to UGCAUGU
14 | B14 | 0.23 KA relative to UGCAUGU
15 | B15 | 0.0581 KA relative to UGCAUGU
16 | B16 | 0.104 KA relative to UGCAUGU

Row | Binder | binding signal
17 | B17 | 0.102 KA relative to UGCAUGU
18 | B18 | 0.0686 KA relative to UGCAUGU
19 | B19 | 0.194 KA relative to UGCAUGU
20 | B20 | 0.0552 KA relative to UGCAUGU
21 | B21 | 0.0671 KA relative to UGCAUGU
22 | B22 | 0.106 KA relative to UGCAUGU
23 | B23 | 0.269 KA relative to UGCAUGU
24 | B24 | 0.0679 KA relative to UGCAUGU
25 | B25 | 0.0794 KA relative to UGCAUGU
26 | B26 | 0.0737 KA relative to UGCAUGU
27 | B27 | 0.0659 KA relative to UGCAUGU
28 | B28 | 0.106 KA relative to UGCAUGU
29 | B29 | 0.0622 KA relative to UGCAUGU
30 | B30 | 0.142 KA relative to UGCAUGU
31 | B31 | 0.0845 KA relative to UGCAUGU

Reference: publication PMC9911399, “Two distinct binding modes provide the RNA-binding protein RbFox with extraordinary sequence specificity”
